We go through 3 molecules from paper PMC8857485, “Prostate secretory protein 94 inhibits sterol binding and export by the mammalian CAP protein CRISP2 in a calcium-sensitive manner” (The Journal of Biological Chemistry, 2022).

The target in test [1] is T1, HA-tagged CRISP2^(L98G Y99P) expressed in yeast (human) (UniProt P16562).
T1 sequence: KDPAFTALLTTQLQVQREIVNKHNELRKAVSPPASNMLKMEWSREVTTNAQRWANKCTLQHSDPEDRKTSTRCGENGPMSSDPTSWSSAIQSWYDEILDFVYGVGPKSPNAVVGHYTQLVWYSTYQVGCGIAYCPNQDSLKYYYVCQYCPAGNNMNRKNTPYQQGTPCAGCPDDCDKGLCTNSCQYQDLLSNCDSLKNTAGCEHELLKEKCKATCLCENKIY
Put plainly: co-IP; yeast coexpressing HA-tagged CRISP2 (wildtype or mutant) and FLAG-tagged PSP94 (wildtype or F24G); cell lysate (50 mM Tris-HCl pH 7.5, 100 mM NaCl, 0.1% NP-40, 10% glycerol) and/or concentrated culture medium, anti-HA magnetic beads overnight at 4 °C, Western blot for HA and FLAG; complex reduced in cells grown in 5 mM CaCl2. On the technique in general: A western blot detects proteins with antibodies after separation by electrophoresis.

Test [2] concerns the target T2, HA-tagged CRISP2 expressed in yeast (human) (UniProt P16562).
T2 sequence: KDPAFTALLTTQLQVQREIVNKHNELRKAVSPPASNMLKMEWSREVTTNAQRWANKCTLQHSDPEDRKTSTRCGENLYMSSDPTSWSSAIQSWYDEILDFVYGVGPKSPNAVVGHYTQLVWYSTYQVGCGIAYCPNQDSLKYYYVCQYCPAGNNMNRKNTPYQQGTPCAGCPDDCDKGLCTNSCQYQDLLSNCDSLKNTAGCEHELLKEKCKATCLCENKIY
The test is described as above.

In test [3] the target is T2, HA-tagged CRISP2 expressed in yeast (human). Put plainly: co-IP; yeast coexpressing CRISP2-HA and PSP94-FLAG grown in medium with 10 mM CaCl2; anti-HA immunoprecipitation from the culture medium, Western blot for FLAG.
Test [4] addresses T3, CRISP2^(N97P L98G Y99P) triple mutant, His-tagged (human) (UniProt P16562).
T3 sequence (chain, RED-tris-NTA fluorescent label on the His tag): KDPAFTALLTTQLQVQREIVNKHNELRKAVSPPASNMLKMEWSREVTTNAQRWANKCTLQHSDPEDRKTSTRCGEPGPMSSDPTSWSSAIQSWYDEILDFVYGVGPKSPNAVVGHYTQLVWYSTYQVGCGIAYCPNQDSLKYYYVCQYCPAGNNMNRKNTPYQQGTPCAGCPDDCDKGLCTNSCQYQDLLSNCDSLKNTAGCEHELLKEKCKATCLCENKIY
The test can be described thus: MST; 100 nM CAP protein labelled with RED-tris-NTA on its His tag, serial dilution of unlabeled PSP94 or PSP94^F24G; 20 mM Tris pH 7.5, 30 mM NaCl, 0.05% Triton X-100; Monolith NT.115, 80% laser power; triplicates; both purified.

Test [5] deals with T4, CRISP2^(L98G Y99P) double mutant, His-tagged (human) (UniProt P16562).
T4 sequence (chain, RED-tris-NTA fluorescent label on the His tag): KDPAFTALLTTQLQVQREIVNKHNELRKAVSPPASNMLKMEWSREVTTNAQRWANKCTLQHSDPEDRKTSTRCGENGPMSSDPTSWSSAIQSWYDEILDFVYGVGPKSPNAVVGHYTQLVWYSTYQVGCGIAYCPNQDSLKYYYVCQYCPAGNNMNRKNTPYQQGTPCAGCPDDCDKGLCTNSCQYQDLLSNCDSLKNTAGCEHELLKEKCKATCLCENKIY
The test is described as above.

No constants are given. Whether binding was seen depends on the method and setting. For some assays here: Binding seen in cells or lysates may run through a third protein. Some results given as binding are weak or reduced against the parent protein; the word gives no strength. Tags and fused reporters may be left off the sequences shown.

B1: FLAG-tagged PSP94 expressed in yeast (protein, UniProt P08118 21-114)
chain: SCYFIPNEGVPGDSTRKCMDLKGNKHPINSEWQTDNCETCTCYETEISCCTLVSTPVGYDKDNCQRIFKKEDCKYIVVEKKDPKKTCSVSEWII
In the case of B1, the binding result in test [1] is listed as “binds weakly”; in test [2], “binds”; in test [3] it was “no binding (condition: cells grown in 10 mM CaCl2)”.

B2: prostate secretory protein of 94 amino acids (PSP94), C-terminal polyhistidine tag (natural protein, human, UniProt P08118 21-114, looked up)
chain: SCYFIPNEGVPGDSTRKCMDLKGNKHPINSEWQTDNCETCTCYETEISCCTLVSTPVGYDKDNCQRIFKKEDCKYIVVEKKDPKKTCSVSEWII
notes: PSP94 (β-microseminoprotein), human; also called β-microseminoprotein; MSP; source: E. coli BL21, purified (nickel-NTA)
Take B2: the binding entry in test [4] is reported as “no binding”.

B3: PSP94^F24G, C-terminal polyhistidine tag (protein, UniProt P08118 21-114)
chain: SCYGIPNEGVPGDSTRKCMDLKGNKHPINSEWQTDNCETCTCYETEISCCTLVSTPVGYDKDNCQRIFKKEDCKYIVVEKKDPKKTCSVSEWII
Take B3: the binding entry in test [5] is “no binding”.
